# Laboratory results reported in the supplement of paper PMC12217912.
# This is one part of the list. The full chains were built here from the parent and the listed change. Values near 0.05 are background.
# B1: TEV protease; numbered along this chain (parent)
# chain: MGESLFKGPRDYNPISSSICHLTNESDGHTTSLYGIGFGPFIITNKHLFRRNNGTLVVQSLHGVFKVKDTTTLQQHLVDGRDMIIIRMPKDFPPFPQKLKFREPQREERICLVTTNFQTKSMSSMVSDTSCTFPSGDGIFWKHWIQTKDGQCGSPLVSTRDGFIVGIHSASNFTNTNNYFTSVPKNFMELLTNQEAQQWVSGWRLNADSVLWGGHKVFMVKPEEPFQPVKEATQL
# Variants of: B1
# Assay: raw area under fraction-flipped curve 0-4 h after induction (AUC4h, not background-subtracted), DNA-recorder readout of cleavage of the substrate (dimensionless); higher = more cleavage of the substrate by the protease variant
# Conditions: temperature: 34 °C; time window: 0-4 h after rhamnose induction
# Experimental: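 In vivo DNA recorder in E. coli TOP10(DE3) ΔrhaA at 34 °C. Each TEVp single-site mutant (parent TEVp 0) is paired with a single-site variant of the 7-mer TEVs (canonical ENLYFQ|S). The substrate sits between flexible linkers in a Bxb1-sfGFP-TEVs-SsrA fusion, so cleavage stabilises Bxb1 and speeds flipping of a recombination array, read by NGS. The value is the raw area under the fraction-flipped curve over 0-4 h after rhamnose induction (AUC4h), with ≥20 reads per time point. It is not background-subtracted; inactive controls average about 0.047.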
# 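Also: Bxb1 expression induced with 0.2% (w/v) L-rhamnose at OD600 near 0.5, cultures sampled hourly, flipped fraction per protease–substrate barcode pair counted by paired-end Illumina sequencing.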
Variant,area with substrate ENAYFQS,area with substrate ENCYFQS,area with substrate ENDYFQS,area with substrate ENEYFQS,area with substrate ENFYFQS,area with substrate ENGYFQS,area with substrate ENHYFQS,area with substrate ENIYFQS,area with substrate ENKYFQS,area with substrate ENMYFQS,area with substrate ENNYFQS,area with substrate ENQYFQS,area with substrate ENSYFQS,area with substrate ENTYFQS,area with substrate ENVYFQS,area with substrate ENWYFQS,area with substrate ENYYFQS,area with substrate ENRYFQS,area with substrate ENPYFQS
R50L,0.0718,0.0738,0.0644,0.0666,0.049,0.083,0.0614,0.128,0.0531,0.065,0.0555,0.0563,0.0554,0.0754,0.0603,0.0464,0.0453,,
D27V,0.192,0.0578,0.0597,0.0525,0.0536,0.0608,0.0743,0.0796,0.0489,0.046,0.0668,0.0541,0.0566,0.0602,0.0615,0.0299,0.059,0.0558,
H47R,0.0528,0.0542,0.0593,0.0676,0.0459,0.0396,0.0534,0.0689,0.0734,0.0562,0.0505,0.0663,0.0819,0.0596,0.0602,,,0.0602,0.0628
H29Y,0.0553,0.051,0.0647,,0.0548,0.0717,0.0586,0.104,0.0597,,,0.0509,0.0546,0.0602,0.0752,0.0691,0.05,0.0555,0.0453
N53G,0.076,0.0677,0.0583,0.0669,0.0655,0.0648,,0.124,0.0846,,0.0602,0.0592,0.0531,0.0578,,0.0801,0.0624,0.0585,
N53A,0.0611,0.0389,0.0618,0.0515,,0.0528,0.0694,,,0.0724,0.0587,0.0563,0.0743,0.0609,0.072,0.0693,0.0536,0.0625,
K46R,0.0353,0.0794,0.0725,,0.0603,0.0667,0.0682,0.0871,0.069,0.0554,0.0537,0.0591,0.0688,,,0.0831,,0.0597,0.0701
K46F,0.0391,0.0607,0.0593,,0.066,,,0.0801,,0.0126,,,0.0665,0.0579,,,,0.0543,0.0564
K46E,0.0488,0.0616,0.059,0.0651,0.0594,0.0566,0.0791,0.0619,0.0682,0.0597,0.0547,0.0567,0.0579,0.0657,0.0674,,,0.0573,0.0796
G28S,0.0683,0.0644,0.0619,0.0574,0.044,0.0637,0.0586,0.0883,0.0468,0.0699,,0.0605,0.0398,0.065,0.0663,0.0073,0.0786,0.0556,0.0539
G28M,0.0478,,0.0608,0.0648,0.0588,0.056,,,,0.0705,0.0586,0.0442,0.0547,,0.0554,,,0.0528,
G28H,0.0497,0.0754,0.063,0.06,0.0785,,,0.11,0.0585,0.0749,,0.0603,,,0.0663,,,0.0606,
I36C,0.0588,,0.0671,,0.0664,0.0603,0.0651,0.0837,,0.0734,,0.0579,0.0567,0.0611,0.0397,0.0427,,0.0695,
I36N,0.0444,0.0577,0.0569,0.0592,,0.0511,0.0446,0.0759,0.0401,,0.0462,0.0492,0.0462,0.0484,0.0606,,,0.0552,0.0412
T31C,0.0526,0.0693,0.0571,0.0538,,0.0694,0.0683,,0.0691,,0.0525,0.0641,0.0916,0.0738,0.0677,,0.0608,0.0543,0.0595
T31R,0.0539,0.0622,0.0505,,0.0623,0.0351,0.0589,,0.0343,,0.0404,0.0555,0.055,0.0474,0.0626,,,0.0615,0.0603
T31G,0.054,0.0597,0.064,0.0538,0.0626,0.0479,0.0619,,0.045,0.0646,0.0739,0.0567,,,0.0711,0.0201,,0.0492,
R51C,0.0502,0.059,0.0672,0.0462,0.0768,0.0678,0.0424,,0.0458,0.0798,0.0684,0.0359,0.0575,,0.0905,0.0649,,,0.0566
R51M,0.0695,0.0686,0.0607,,,0.0592,0.0608,0.141,0.0533,,0.0589,0.0513,0.059,0.066,0.0657,0.0598,0.0384,0.0614,0.077
I43V,0.0435,,0.0554,0.0723,0.0645,0.0676,,0.112,,0.0917,0.0484,0.0801,0.0496,0.0691,,0,,0.0646,
N24K,0.069,0.0764,0.0618,0.0633,0.0652,0.0607,0.0729,,0.0689,0.0652,0.061,0.0638,0.0564,0.0664,0.0613,,0.0882,0.0438,
G37L,0.0508,0.1,,,,,0.0528,,,0.0758,0.0602,0.0427,0.0624,0.073,0.0632,,0.0329,0.0519,0.051
G37R,0.0507,0.0506,0.0566,,0.0555,,0.0419,,,,0.0693,0.0475,0.0597,0.0606,0.0488,0.0534,0.0513,0.0492,0.0455
T44L,0.0468,0.0596,0.0664,0.0628,0.05,0.0496,0.0577,,0.059,,0.0578,0.0581,0.0572,0.038,0.0539,,0.0475,,
